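Assay format: 96-well plates, 48-hour exposure. GI50 marks 50% less growth. TGI: total growth inhibition.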
System: NCI-H322M lung
Assay: NCI anticancer screen, dose series, 48 h

Row | Structure (SMILES) | GI50 [µM] | TGI [µM]
1 | C#CCN(C)CCCOc1ccc(N(CC)C(=O)c2cc(C(C)C)c(O)cc2O)cc1Cl | 0.737 | 17.3
2 | CCOc1ccc(/C=N/NC(=O)Cn2nc(Cc3ccc(OC)cc3)c3onc(C)c3c2=O)cc1 | 16.4 | 77.3
3 | CC/C(=C(/c1ccc(O)cc1)c1ccc(OCCN(C)C(=O)COCCOCCNC(=O)Cc2ccc3c(c2)CN([C@@H]2CCC(=O)NC2=O)C3=O)cc1)c1ccccc1 | 1.16 | > 29.4
